{"source": "PubChem BioAssay AID1508623", "about": "(National Center for Advancing Translational Sciences (NCATS), 2021)", "note": "The campaign covered roughly 48,000 compounds. About 450 (0.94%) were called active. About 19% were inconclusive and are not listed. Calls follow the shape of the dose curve; as a rule, active = well fitted inhibition curve with a large enough effect; inconclusive = small, poorly fitted or top-dose-only effect; inactive = no such curve, though single readings can be large or run the other way. This is one part of the list. Potency is read from the fitted curve at half-maximal effect."}
{"experiment": "Primary qHTS for Identification of Small Molecule Inhibitors of Huntingtin Promoter Activity; also: nearly all actives have a fitted effect of over 50% in size", "settings": "HEK293 HTT promoter firefly luciferase reporter (activity 0% = vehicle and -100% = no light), 24 h; series mostly up to 57.5 µM; activity change, negative = inhibition: at the top concentration", "outline": "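HEK293 Fluc reporter, 2,500 cells/well, 24 h pre-culture; cpds up to 57.5 uM final, 24 h 37 degrees C; Dual-Glo, 10 min RT; normalized vehicle = 0%, zero RLU = -100%.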"}
{"compound": "Cc1oc2ncn(CC(C)C)c(=O)c2c1C(=O)Nc1ccc(Cl)cn1", "activity change, negative = inhibition": "inactive: 0.748%"}
{"compound": "O=C(NCc1ccccc1Cl)C1CCCN(c2nc3ccccc3n3cccc23)C1", "note": "(stereo not drawn)", "activity change, negative = inhibition": "inactive: -23.6%"}
{"compound": "Cc1ccc(C)c(S(=O)(=O)NCC(c2ccc(N(C)C)cc2)N2CCOCC2)c1", "note": "(stereo not drawn)", "activity change, negative = inhibition": "inactive: -18.9%"}
{"compound": "Cc1cccc(OCCn2nnc3sc4c(c3c2=O)CCCC4)c1", "activity change, negative = inhibition": "inactive: 8.86%"}
{"compound": "CC(C)c1ccc(NS(=O)(=O)c2ccc3[nH]cc(C(=O)NC4CCCCC4)c(=O)c3c2)cc1", "activity change, negative = inhibition": "inactive: 14.9%"}
{"compound": "CCOc1ccc(CNCCNC(=O)c2nonc2N)cc1", "activity change, negative = inhibition": "inactive: -13.6%"}
{"compound": "CCOC(=O)c1sc(NC(=O)c2nc(SC)ncc2Cl)c(C(=O)OCC)c1C", "activity change, negative = inhibition": "inactive: -2.47%"}
{"compound": "Cc1cccc(NC(=O)c2sc3cccc(Cl)c3c2Cl)c1", "activity change, negative = inhibition": "inactive: 78.7%"}
{"compound": "CNC(=O)c1c(NC(=O)c2cc(=O)c3ccccc3o2)sc2c1CCC2", "activity change, negative = inhibition": "inactive: 5.31%"}
{"compound": "CCCCNC(=O)CSc1c2c(nc3ccc(Cl)cc13)CCCC2", "activity change, negative = inhibition": "inactive: -2.78%"}
{"compound": "COc1ccc(-c2nc3ccccc3s2)cc1NC(=O)c1ccccc1OC", "activity change, negative = inhibition": "inactive: 48%"}
{"compound": "COc1cccc(-c2nc(S(=O)(=O)c3ccccc3)c(NCc3ccccc3)o2)c1", "activity change, negative = inhibition": "inactive: -5.9%"}
{"compound": "Cn1c(=O)c2sccc2n2c(CCCC(=O)Nc3ccc(F)c(F)c3)nnc12", "activity change, negative = inhibition": "inactive: 0.603%"}
{"compound": "COc1cccc(-c2cc(C(F)(F)F)nc(NCc3ccc(F)cc3)n2)c1", "activity change, negative = inhibition": "inactive: -20.2%"}
{"compound": "COc1ccc(CCNC(=O)c2ccc3c(c2)nc2n3CCOC2)cc1OC", "activity change, negative = inhibition": "inactive: -7.46%"}
{"compound": "Cc1c(C(=O)Nc2ccc(F)cc2F)nnn1-c1ccccc1Br", "activity change, negative = inhibition": "inactive: -22%"}
{"compound": "CC1=C(C(=O)Nc2ccccc2)C(c2ccncc2)n2nc(SCc3ccccc3)nc2N1", "note": "(stereo not drawn)", "activity change, negative = inhibition": "inactive: -8.35%"}
{"compound": "COCCCNC(=O)c1c(C)nn(-c2ccc(F)cc2)c1-n1cccc1", "activity change, negative = inhibition": "inactive: -27.4%"}
{"compound": "CCc1nn(CC(=O)NCc2cccc(OC)c2OC)c(=O)c2cc3occc3n12", "activity change, negative = inhibition": "inactive: 2.88%"}
{"compound": "Cc1ccc(C(=O)COC(=O)C(Cc2c[nH]c3ccccc23)NC(=O)c2ccc(Br)cc2)cc1", "note": "(stereo not drawn)", "activity change, negative = inhibition": "inactive: -5.1%"}
{"compound": "O=C(NCCCO)C(=O)Nc1c2c(nn1-c1ccc(F)cc1)CSC2", "activity change, negative = inhibition": "inactive: -11.9%"}
{"compound": "COc1ccc(NC(=O)C2=C(C)Nc3nc(SC)nn3C2c2cc(OC)ccc2OC)cc1", "note": "(stereo not drawn)", "activity change, negative = inhibition": "inactive: -0.58%"}
{"compound": "Cc1nnc(N2CCC(C(=O)NCc3ccc(N(C)C)cc3)CC2)c2nn(-c3ccccc3)c(C)c12", "activity change, negative = inhibition": "inactive: -7.49%"}
{"compound": "c1ccc(N2CCN(c3ncnc4c3nc3n4CCCC3)CC2)cc1", "Potency": "active: 12.6 µM"}
{"compound": "Cc1cc2oc(C(=O)Nc3cccc(-c4nc5ccccc5o4)c3)c(C)c2cc1Cl", "activity change, negative = inhibition": "inactive: -11.8%"}
{"compound": "O=C(Nc1ccc(Cl)cc1)c1ccc2c(c1)N(Cc1ccccc1)C(=O)c1ccccc1S2(=O)=O", "activity change, negative = inhibition": "inactive: -23.6%"}
{"compound": "CN(CC(=O)Nc1cccc(C#N)c1)S(=O)(=O)c1cc2c(cc1Cl)NC(=O)CO2", "activity change, negative = inhibition": "inactive: -21.6%"}
{"compound": "CCOc1ccccc1CNC(=O)CC(C)n1ccc(C)n1", "note": "(stereo not drawn)", "activity change, negative = inhibition": "inactive: -7.65%"}
{"compound": "CCOC(=O)c1cccc(NC(=O)CCn2nc(C)c3c(C)n(-c4ccccc4)nc3c2=O)c1", "activity change, negative = inhibition": "inactive: -24.8%"}
{"compound": "COCCCNC(=O)C1CCCN(S(=O)(=O)c2ccc3c(c2)oc(=O)n3C)C1", "note": "(stereo not drawn)", "activity change, negative = inhibition": "inactive: -18.2%"}
{"compound": "COc1ccccc1CNC(=O)c1ccc(CN2CC(=O)N3CCCCC3C2=O)cc1", "note": "(stereo not drawn)", "activity change, negative = inhibition": "inactive: -17.1%"}
{"compound": "COc1ccccc1C(=O)NCC1(N2CCN(C)CC2)CCCCC1", "activity change, negative = inhibition": "inactive: -12.6%"}
{"compound": "Cc1ccc(C)c(NC(=O)N2CCC(N3CCN(Cc4ccc(F)cc4)C(=O)C3=O)CC2)c1", "activity change, negative = inhibition": "inactive: -11.9%"}
{"compound": "Cc1ccccc1Nc1cc(C(=O)NC2CCCCC2)c2ccccc2n1", "activity change, negative = inhibition": "inactive: 2.29%"}
{"compound": "CCOCCCn1c(SCC(=O)NCCCOC)nc2c(sc3ccccc32)c1=O", "activity change, negative = inhibition": "inactive: -8.94%"}
{"compound": "Cc1c(NC(=O)c2ccccc2)cc(C(C)C)c(O)c1S(=O)(=O)c1ccc(Cl)cc1", "activity change, negative = inhibition": "inactive: -5.83%"}
{"compound": "Fc1ccc(Nc2ncnc3c2nc2n3CCCC2)cc1", "activity change, negative = inhibition": "inactive: 22.2%"}
{"compound": "CCOC(=O)N1CCc2c(sc3c2c(=O)n(-c2ccc(Cl)cc2)c(=O)n3Cc2cccc(C)c2)C1", "activity change, negative = inhibition": "inactive: -10.6%"}
{"compound": "Cn1c(=O)oc2cc(S(=O)(=O)N3CCCC(C(=O)N4CCN(c5ccccc5F)CC4)C3)ccc21", "note": "(stereo not drawn)", "activity change, negative = inhibition": "inactive: -24.3%"}
{"compound": "O=C(NCCS(=O)(=O)N1CCN(c2ccc(F)cc2)CC1)c1cc(=O)c2ccccc2o1", "activity change, negative = inhibition": "inactive: -18%"}
{"compound": "CSc1cccc(Nc2cc(C(=O)NCCCN(Cc3ccccc3)C(C)C)c3ccccc3n2)c1", "activity change, negative = inhibition": "inactive: -17%"}
{"compound": "COc1ccccc1N1CCN(S(=O)(=O)c2cc3[nH]c(=O)c(=O)[nH]c3cc2C)CC1", "activity change, negative = inhibition": "inactive: 3.23%"}
{"compound": "Cc1ccc2occ(CC(=O)N(Cc3ccc(N(C)C)cc3)C3CCS(=O)(=O)C3)c2c1", "note": "(stereo not drawn)", "activity change, negative = inhibition": "inactive: -18%"}
{"compound": "CCOc1ccc(CNC(=O)CCC(=O)N2CCSc3ccccc32)cc1", "activity change, negative = inhibition": "inactive: -21.2%"}
{"compound": "COc1ccc2nc(N3CCN(C(=O)C4CC4)CC3)sc2c1", "activity change, negative = inhibition": "inactive: 35.3%"}
{"compound": "COC(=O)c1cc2oc3ccccc3c2n1Cc1c(F)cccc1Cl", "activity change, negative = inhibition": "inactive: -8.11%"}
{"compound": "CCc1cccc(NC(=O)CN2CCCN(Cc3cccc(C)c3)S2(=O)=O)c1", "activity change, negative = inhibition": "inactive: -10.8%"}
{"compound": "Cc1ccc(Cl)cc1N(C)C(=O)c1cnc(N2CCOCC2)c2ccccc12", "activity change, negative = inhibition": "inactive: -5.1%"}
